Source: PubChem BioAssay AID686971 (National Center for Advancing Translational Sciences (NCATS), 2013)
In all, about 360,000 compounds went through this assay and about 7,500 (2.1%) were called active. This list was built around the results that the source calls inconclusive (neither active nor inactive); the mix of calls is not that of the screen. Calls come from the whole dose curve; as a rule, active = well fitted cell-killing curve with a large enough effect; inconclusive = small, poorly fitted or top-dose-only effect, or effect the other way, or another doubt; inactive = no such curve, though single readings can be large or run the other way. No potency is given beside an inconclusive call; the fits are too rough.

Test: qHTS for induction of synthetic lethality in tumor cells producing 2HG: qHTS for the HT-1080-IDH1KD cell line;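 for activity, negative = toxicity: 0% = DMSO wells and -100% = cell-free medium wells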
Settings: HT-1080 IDH1 knockdown viability, ATP luminescence, 48 h; activity, negative = toxicity: at 46.1 µM (top of the series) unless noted
Summary of the method: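 Viability of IDH1-knockdown HT-1080 fibrosarcoma cells was assessed by CellTiter-Glo after 48 h at 37 °C with titrated compound; concentration-effect curves were classified by fit quality and response size.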
Potency is the fitted concentration of half-maximal effect; tags give direction and shape of the fitted curve.

Row | SMILES | Potency | activity, negative = toxicity
1 | COc1ccccc1C(=O)N1CCN(c2cccc(C(F)(F)F)c2)CC1 | active: 9.2 µM | 
2 | CCn1c(=N)n(CC(=O)c2ccc(Cl)c(Cl)c2)c2ccccc21 | active: 23.1 µM | 
3 | COc1ccc(CNC(=O)COc2ccc(S(=O)(=O)NC(C)C)cc2)cc1 |  | inconclusive: 6.85% [cytotoxic]
4 | CC1(C(=O)NS(=O)(=O)c2cccc(Cl)c2)CCN1C(=O)Cc1ccsc1 (stereo not drawn) | inactive | 
5 | Cc1nc2ncccn2c1-c1csc(NCc2ccco2)n1 | inactive | 
6 | O=C(NCC(c1cccs1)N1CCOCC1)c1cccc(S(=O)(=O)Nc2ccc(F)cc2)c1 (stereo not drawn) | inactive | 
7 | COc1ccc(NC(=O)C2(C)CCN2Cc2ccc3ccccc3c2)cc1OC (stereo not drawn) | inconclusive [cytotoxic, partial curve, poor fit] | 
8 | Cc1ccc(NC(=O)c2ccc(S(=O)(=O)NCc3ccco3)cc2)nc1 | inconclusive [cytotoxic, single point] | 
9 | CC(C)(C)C(=O)NCC12C=CC(O1)C1C(=O)N(c3ccccc3)C(=O)C12 (stereo not drawn) | inconclusive [cytotoxic, single point] | 
10 | Cc1ccc(OCCNS(=O)(=O)c2ccc(Cl)cc2)cc1 | inactive | 
11 | O=C1CC(c2cc([N+](=O)[O-])ccc2Cl)c2c(ccc3ccccc23)N1 (stereo not drawn) | inconclusive [cytotoxic, single point] | 
12 | Fc1cccc(F)c1-n1c(CN2CCCCC2)csc1=S | inconclusive [cytotoxic, single point] | 
13 | Cc1[nH]c2ccccc2c1C(=O)CN1C(=O)NC(C)(c2ccc(Cl)cc2Cl)C1=O (stereo not drawn) | inconclusive [cytotoxic, single point] | 
14 | Cc1ccc(N2C(=O)N(CC(=O)c3cc(C)ccc3C)C(=O)C2C)cc1 (stereo not drawn) | inactive | 
15 | Cc1ccc(-c2onc3ccc(Cl)cc23)cc1 | inactive | 
16 | COc1ccc(N2C(=O)c3ccccc3C(C)(C)C2=O)cc1 | inactive | 
17 | Cc1ccc(NC2CC(=O)N(c3ccc(C)cc3)C2=O)cc1 (stereo not drawn) |  | inconclusive: 34.4%
18 | Cn1c(-c2ccccc2)cc2ccccc21 | inactive | 
19 | COc1nn(-c2ccccc2)c(=O)c(Cl)c1Cl | active: 13 µM | 
20 | C=CCc1ccc(OCC(O)CN2CCN(Cc3ccc(Cl)cc3)CC2)c(OC)c1 (stereo not drawn) | active: 20.6 µM | 
21 | O=C(OCC(=O)N1CCN(C(=O)c2ccco2)CC1)c1ccccc1C(=O)c1ccccc1 | inactive | 
22 | COc1ccc2nc(NC(=O)C3CCCN(S(=O)(=O)c4cccc5nsnc45)C3)sc2c1 (stereo not drawn) | inactive | 
23 | CCc1nc2ccc(C(=O)N(C)CCN(C)C)cn2c1N(C)Cc1cc2ccccc2s1 | inconclusive [cytotoxic, single point] | 
